Experimental data: the supplement of paper PMC8728848
The other results are listed elsewhere or left out.

Tests used:
Test in all cases: glycan array binding signal (z-score within array); higher = stronger binding
Conditions in all cases: glycan notation: IUPAC condensed, linker removed
[1] = target: Fuc(a1-2)Gal(b1-4)GlcNAc(b1-3)Gal(b1-4)GlcNAc(b1-3)Gal(b1-4)GlcNAc
Outline: (§1)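 From the Consortium for Functional Glycomics database, 3228 arrays were curated, keeping only those whose protein sequence was available. Binding is given as a within-array Z-score averaged across arrays sharing a protein sequence and across linkers. Negative Z-scores can be read as non-binding.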

[2] = target: Fuc(a1-2)Gal(b1-4)GlcNAc(b1-3)GalNAc
Outline: as §1

[3] = target: Fuc(a1-2)Gal(b1-4)GlcNAc(b1-3)[Fuc(a1-2)Gal(b1-4)GlcNAc(b1-6)]GalNAc
Outline: as §1

[4] = target: Fuc(a1-2)Gal(b1-4)GlcNAc(b1-3)[Fuc(a1-3)[Gal(b1-4)]GlcNAc(b1-6)]Gal(b1-4)Glc
Outline: as §1

[5] = target: Fuc(a1-2)Gal(b1-4)GlcNAc(b1-6)GalNAc
Outline: as §1

[6] = target: Fuc(a1-2)Gal(b1-4)GlcNAc6S
Outline: as §1

[7] = target: Fuc(a1-2)Gal(b1-4)[Fuc(a1-3)]GlcNAc
Outline: as §1

[8] = target: Fuc(a1-2)Gal(b1-4)[Fuc(a1-3)]GlcNAc(b1-2)Man(a1-3)[Fuc(a1-2)Gal(b1-4)[Fuc(a1-3)]GlcNAc(b1-2)Man(a1-6)]Man(b1-4)GlcNAc(b1-4)[Fuc(a1-6)]GlcNAc
Outline: as §1

[9] = target: Fuc(a1-2)Gal(b1-4)[Fuc(a1-3)]GlcNAc(b1-2)[Fuc(a1-2)Gal(b1-4)[Fuc(a1-3)]GlcNAc(b1-4)]Man(a1-3)[Fuc(a1-2)Gal(b1-4)[Fuc(a1-3)]GlcNAc(b1-2)Man(a1-6)]Man(b1-4)GlcNAc(b1-4)GlcNAc
Outline: as §1

[10] = target: Fuc(a1-2)Gal(b1-4)[Fuc(a1-3)]GlcNAc(b1-3)Gal(b1-4)[Fuc(a1-3)]GlcNAc
Outline: as §1

[11] = target: Fuc(a1-2)Gal(b1-4)[Fuc(a1-3)]GlcNAc(b1-3)Gal(b1-4)[Fuc(a1-3)]GlcNAc(b1-3)Gal(b1-4)[Fuc(a1-3)]GlcNAc
Outline: as §1

[12] = target: Fuc(a1-2)Gal(b1-4)[Fuc(a1-3)]GlcNAc(b1-3)GalNAc
Outline: as §1

[13] = target: Fuc(a1-2)Gal(b1-4)[Fuc(a1-3)]GlcNAc(b1-3)[Neu5Ac(a2-6)Gal(b1-4)GlcNAc(b1-6)]Gal(b1-4)Glc
Outline: as §1

[14] = target: Fuc(a1-2)Gal3S(b1-4)GlcNAc
Outline: as §1

[15] = target: Fuc(a1-2)Gal6S(b1-3)GlcNAc
Outline: as §1

[16] = target: Fuc(a1-2)Gal6S(b1-3)GlcNAc6S
Outline: as §1

[17] = target: Fuc(a1-2)Gal6S(b1-4)Glc
Outline: as §1

[18] = target: Fuc(a1-2)Gal6S(b1-4)Glc6S
Outline: as §1

[19] = target: Fuc(a1-2)[Gal(a1-3)]Gal
Outline: as §1

[20] = target: Fuc(a1-2)[Gal(a1-3)]Gal(b1-3)GalNAc
Outline: as §1

[21] = target: Fuc(a1-2)[Gal(a1-3)]Gal(b1-3)GalNAc(b1-3)Gal(a1-4)Gal(b1-4)Glc
Outline: as §1

[22] = target: Fuc(a1-2)[Gal(a1-3)]Gal(b1-3)GlcNAc
Outline: as §1

[23] = target: Fuc(a1-2)[Gal(a1-3)]Gal(b1-3)GlcNAc(b1-2)Man(a1-3)[Fuc(a1-2)[Gal(a1-3)]Gal(b1-3)GlcNAc(b1-2)Man(a1-6)]Man(b1-4)GlcNAc(b1-4)GlcNAc
Outline: as §1

[24] = target: Fuc(a1-2)[Gal(a1-3)]Gal(b1-3)GlcNAc(b1-2)Man(a1-3)[Fuc(a1-2)[Gal(a1-3)]Gal(b1-3)GlcNAc(b1-2)Man(a1-6)]Man(b1-4)GlcNAc(b1-4)[Fuc(a1-6)]GlcNAc
Outline: as §1

[25] = target: Fuc(a1-2)[Gal(a1-3)]Gal(b1-3)GlcNAc(b1-3)GalNAc
Outline: as §1

[26] = target: Fuc(a1-2)[Gal(a1-3)]Gal(b1-3)GlcNAc(b1-6)GalNAc
Outline: as §1

[27] = target: Fuc(a1-2)[Gal(a1-3)]Gal(b1-4)Glc
Outline: as §1

[28] = target: Fuc(a1-2)[Gal(a1-3)]Gal(b1-4)GlcNAc
Outline: as §1

[29] = target: Fuc(a1-2)[Gal(a1-3)]Gal(b1-4)GlcNAc(b1-2)Man
Outline: as §1

[30] = target: Fuc(a1-2)[Gal(a1-3)]Gal(b1-4)GlcNAc(b1-2)Man(a1-3)[Fuc(a1-2)[Gal(a1-3)]Gal(b1-4)GlcNAc(b1-2)Man(a1-6)]Man(b1-4)GlcNAc(b1-4)GlcNAc
Outline: as §1

B1: Cohesin-hDCIR (Homo sapiens) (protein)
chain: LDDLDAVRIKVDTVNAKPGDTVRIPVRFSGIPSKGIANCDFVYSYDPNVLEIIEIEPGDIIVDPNPDKSFDTAVYPDRKIIVFLFAEDSGTGAYAITKDGVFATIVAKVKEGAPNGLSVIKFVEVGGFANNDLVEQKTQFFDGGANVGDTTEPATPTTPVTTPTTTDDLDAASQKYSQLLEKKTTKELVHTTLECVKKNMPVEETAWSCCPKNWKSFSSNCYFISTESASWQDSEKDCARMEAHLLVINTQEEQDFIFQNLQEESAYFVGLSDPEGQRHWQWVDQTPYNESSTFWHPREPSDPNERCVVLNFRKSPKRWGWNDVNCLGPQRSVCEMMKIHLHHHHHH
Q: What does the source list for B1?
A: glycan array binding signal (z-score) [1]: -0.64; glycan array binding signal (z-score) [2]: -0.226; glycan array binding signal (z-score) [3]: 0.574; glycan array binding signal (z-score) [4]: -0.626; glycan array binding signal (z-score) [5]: 5.99; glycan array binding signal (z-score) [6]: -0.5; glycan array binding signal (z-score) [7]: 0.638; glycan array binding signal (z-score) [8]: -0.296; glycan array binding signal (z-score) [9]: -0.294; glycan array binding signal (z-score) [10]: -0.633; glycan array binding signal (z-score) [11]: -0.618; glycan array binding signal (z-score) [12]: 0.007; glycan array binding signal (z-score) [13]: -0.662; glycan array binding signal (z-score) [14]: -0.475; glycan array binding signal (z-score) [15]: -0.511; glycan array binding signal (z-score) [16]: 0.142; glycan array binding signal (z-score) [17]: -0.454; glycan array binding signal (z-score) [18]: -0.178; glycan array binding signal (z-score) [19]: -0.466; glycan array binding signal (z-score) [20]: -0.585; glycan array binding signal (z-score) [21]: -0.519; glycan array binding signal (z-score) [22]: 2.05; glycan array binding signal (z-score) [23]: -0.493; glycan array binding signal (z-score) [24]: -0.382; glycan array binding signal (z-score) [25]: -0.283; glycan array binding signal (z-score) [26]: 1.68; glycan array binding signal (z-score) [27]: 0.366; glycan array binding signal (z-score) [28]: -0.418; glycan array binding signal (z-score) [29]: -0.126; glycan array binding signal (z-score) [30]: -0.03
